Out of some 410,000 compounds screened, about 5,000 (1.2%) were called active. Inconclusive results, whose numbers are uncertain, are shown with a selection of clear calls. Calls come from the whole dose curve; as a rule, active = well fitted inhibition curve with a large enough effect; inconclusive = small, poorly fitted or top-dose-only effect; inactive = no such curve, though single readings can be large or run the other way. Potencies beside an inconclusive call are fits to weak or partial responses and may not hold up.
Experiment: qHTS for Inhibitors of TGF-b; note: nearly all actives have a fitted effect of over 65% in size
Details: HepG2 CAGA-GFP TGF-b/SMAD3 reporter, GFP fluorescence, 18 h, TGF-beta stimulated, 500 pg/mL final; series mostly up to 46.1 µM
In short: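 Cell-based qHTS in HEPG2 carrying a CAGA-GFP Smad reporter; compounds added before 500 pg/mL final TGF-beta, 18 h incubation at 37 degrees C, GFP fluorescence quantified per cell by imaging cytometry.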
Potency is the fitted concentration of half-maximal effect; tags give direction and shape of the fitted curve.

For `CCOC(=O)c1ccc(N2C(=O)c3n[nH]c(-c4ccco4)c3C2c2ccc(O)c(OC)c2)cc1` (configuration not stated), which Potency is on record?
The Potency was active: 10 µM.

For `O=C1OCCC1=COCCCCCCOC=C1CCOC1=O`, which Potency is on record?
Its Potency is “inactive”.

Which Potency does the source give for `COc1cccc(C(c2c(C)[nH]n(-c3ccccc3)c2=O)c2c(C)[nH]n(-c3ccccc3)c2=O)c1OC` here?
The Potency was inconclusive: 11.2 µM [inhibitor, partial curve, poor fit].

Which Potency does the source give for `CC1CCCN(CCCNC(=O)CCn2nc(-c3ccccc3)ccc2=O)C1` (configuration not stated) here?
Its Potency is inconclusive: 28.2 µM [inhibitor, single point].

For `Cc1ccc(NC(=O)CN2C(=O)CCn3nc(-c4cccn4C)cc32)cc1`, which Potency is on record?
Its Potency is “inactive”.

With `CC(OC(=O)c1cc2ccccc2cc1O)C(=O)Nc1ccc(S(N)(=O)=O)cc1` (configuration not stated) as the compound, how does the Potency read?
Its Potency is inconclusive: 35.5 µM [inhibitor, single point].

For `CN(CC(=O)Nc1ccc(Cl)c(Cl)c1)CC(=O)N1CCc2ccccc21`, which Potency is on record?
The Potency was inconclusive: 17.8 µM [inhibitor, single point].

Which Potency does the source give for `COCCCNc1nc2c(S(=O)(=O)c3ccc(C)c(C)c3)nnn2c2ccc(Cl)cc12` here?
The Potency was inconclusive: 6.31 µM [inhibitor, full curve, poor fit].

For `Cc1ccc(NC(=O)C2CCN(c3ncnc4c3nc3n4CCCCC3)CC2)nc1`, which Potency is on record?
Its Potency is inconclusive: 35.5 µM [inhibitor, single point].

Which Potency does the source give for `CCOc1ccc(OCC)c(NC(=O)CCC(=O)N2CCOc3ccccc32)c1` here?
Its Potency is “inactive”.

With `COC(C(=O)N1CCC(CCC(=O)Nc2ccccc2)CC1)c1ccccc1` (configuration not stated) as the compound, how does the Potency read?
The Potency was “inactive”.

For `CCCc1nc2ccccc2c(=O)n1-c1ccc(C(=O)OCC)cc1`, which Potency is on record?
The Potency was inconclusive: 0.708 µM [inhibitor, full curve, poor fit].

Which Potency does the source give for `O=C(NCc1ccc(Cl)cc1)c1ccc(Br)o1` here?
Its Potency is inconclusive: 31.6 µM [inhibitor, single point].

Which Potency does the source give for `Cc1ccc2oc(-c3cc(NC(=O)c4ccco4)ccc3Cl)nc2c1` here?
The Potency was inconclusive: 35.5 µM [inhibitor, single point].

With `Nc1c(Cl)cc(-c2csc(NCCc3nc4cc(Cl)c(Cl)cc4n3CCCO)n2)cc1Cl` as the compound, how does the Potency read?
The Potency was “inactive”.

With `Cc1ccccc1C(=O)Nc1ccc2c(C#N)c3nc4ccccc4nc3n2c1` as the compound, how does the Potency read?
The Potency was “inactive”.

Which Potency does the source give for `CCc1nc2ccc(C(=O)Nc3ccc(C(N)=O)cc3)cn2c1N(C)CCC(C)C` here?
The Potency was inconclusive: 35.5 µM [inhibitor, single point].

With `C=CCOC(=O)C1=C[C@@H](c2ccc(C(F)(F)F)cc2)[C@H](CCCO)[C@@H](OCC)O1` as the compound, how does the Potency read?
Its Potency is inconclusive: 6.31 µM [inhibitor, full curve, poor fit].

With `Cc1ccc(N)cc1O` as the compound, how does the Potency read?
The Potency was inconclusive: 35.5 µM [inhibitor, single point].

With `CCOc1cc(C)c(S(=O)(=O)Nc2ccc3cn[nH]c3c2)cc1C` as the compound, how does the Potency read?
The Potency was inconclusive: 14.1 µM [inhibitor, single point].

For `C[C@@H](C(=O)NCCc1ccccc1F)N1C(=O)N2CCc3c([nH]c4ccccc34)[C@@]2(C)C1=O`, which Potency is on record?
Its Potency is inconclusive: 10 µM [inhibitor, partial curve, poor fit].

For `Cc1ccc(-c2nc3nc(C)cc(Nc4ccccc4O)n3n2)cc1`, which Potency is on record?
Its Potency is “inactive”.

Which Potency does the source give for `COc1ccc(C(NCC(=O)NC(C)c2ccc(Cl)cc2)c2ccccc2)cc1` (configuration not stated) here?
Its Potency is inconclusive: 35.5 µM [inhibitor, single point].

Which Potency does the source give for `CCN(C(=O)CCc1ccccc1)C1CCCCC1` here?
The Potency was inconclusive: 17.8 µM [inhibitor, single point].

With `O=[N+]([O-])c1ccc(-c2cc3ccccc3[nH]2)cc1` as the compound, how does the Potency read?
The Potency was “inactive”.

Which Potency does the source give for `COC(=O)c1scc(-c2ccc(C)cc2)c1S(=O)(=O)N1CCN(c2ccc(OC)cc2)CC1` here?
The Potency was inconclusive: 28.2 µM [inhibitor, single point].

Which Potency does the source give for `COc1ccc2oc(C(=O)OC(C)C(=O)N(C)c3ccccc3)c(C)c2c1` (configuration not stated) here?
The Potency was inconclusive: 14.1 µM [inhibitor, partial curve, poor fit].

With `CCn1cnc2cc(NCc3ccc(OC)cc3)ccc21` as the compound, how does the Potency read?
Its Potency is “inactive”.

For `CCOc1ccc(-c2nc(S(=O)(=O)c3ccccc3)c(N3CCOCC3)o2)cc1`, which Potency is on record?
Its Potency is “inactive”.

Which Potency does the source give for `COC1=CC(=O)c2nc(Cl)ccc2C1=O` here?
Its Potency is active: 0.891 µM.

With `CCOc1ccc(N(C)S(=O)(=O)c2cc(-c3cc(C)no3)ccc2CC)cc1` as the compound, how does the Potency read?
The Potency was inconclusive: 22.4 µM [inhibitor, single point].

For `COc1ccc2c(c1)C(=O)CC(c1ccc3c(c1)OCCO3)O2` (configuration not stated), which Potency is on record?
The Potency was inconclusive: 35.5 µM [inhibitor, single point].

With `C[C@@H](NC(=O)c1nc[nH]c1C(=O)N[C@@H](Cc1ccccc1)C(=O)OC(C)(C)C)c1ccccc1` as the compound, how does the Potency read?
The Potency was inconclusive: 35.5 µM [inhibitor, single point].

Which Potency does the source give for `Cc1cc(C)cc(NC(=S)NCCN(C2CCCCC2)C2CCCC2)c1` here?
Its Potency is inconclusive: 8.91 µM [inhibitor, partial curve, poor fit].

Which Potency does the source give for `C(=C\c1ccccc1)/CSc1nnc(-c2ccccc2)n1Cc1ccco1` here?
Its Potency is inconclusive: 10 µM [inhibitor, partial curve, poor fit].

For `CC(C)OC(=O)CC12CN(C)CC(CC(=O)OC(C)C)(CN(C)C1)C2=O`, which Potency is on record?
Its Potency is “inactive”.

Which Potency does the source give for `O=C(NCc1ccco1)c1sc(=S)n2c1[nH]c(=O)c1ccccc12` here?
The Potency was inconclusive: 28.2 µM [inhibitor, single point].

With `Cc1ccc(CN2CCCN(C)CC2)c(C)c1` as the compound, how does the Potency read?
Its Potency is “inactive”.

With `COc1ccc(CN(C(=O)CN2C(=O)c3ccccc3S2(=O)=O)C(C(=O)NCC2CCCO2)c2ccco2)cc1` (configuration not stated) as the compound, how does the Potency read?
The Potency was “inactive”.

Which Potency does the source give for `Cc1cc(NC(=O)COC(=O)C(Nc2ccc(C(F)(F)F)cc2Cl)C(C)C)no1` (configuration not stated) here?
Its Potency is inconclusive: 35.5 µM [inhibitor, single point].

Which Potency does the source give for `COC(=O)NCC(c1cccnc1)N1CCN(c2ccc(F)cc2)CC1` (configuration not stated) here?
Its Potency is “inactive”.

Which Potency does the source give for `Cc1ccccc1N1CCN(S(=O)(=O)c2nnc(NC(=O)c3ccco3)s2)CC1` here?
Its Potency is “inactive”.

For `NC(=O)[C@@H]1CC2(CC(c3cccc(NC(=O)CC(c4ccccc4)c4ccccc4)c3)=NO2)CN1C(=O)[C@@H]1CCC(=O)N1` (some centres not stated), which Potency is on record?
The Potency was inconclusive: 35.5 µM [inhibitor, single point].

For `O=C(NCCOc1nc(N2CCOCC2)nc(N2CCOCC2)n1)Nc1ccccc1`, which Potency is on record?
Its Potency is “inactive”.

For `OCC[C@H]1C[C@H](O)[C@@H](O)[C@@]2(Cc3ccccc3O2)O1`, which Potency is on record?
Its Potency is “inactive”.

With `O=C1c2ccccc2C(=O)N1CCOCCN1C(=O)c2ccccc2C1=O` as the compound, how does the Potency read?
The Potency was inconclusive: 6.31 µM [inhibitor, single point].

With `Cc1cc(C)n2cc(CSc3nncn3C)nc2n1` as the compound, how does the Potency read?
Its Potency is “inactive”.

Which Potency does the source give for `O=C(NCCN1CCOCC1)c1cc2sccc2n1Cc1ccc(F)cc1` here?
The Potency was “inactive”.

For `COc1ccc(CNC(=O)/C=C/C(=O)O)cc1OC`, which Potency is on record?
Its Potency is inconclusive: 6.31 µM [inhibitor, single point].

With `CCCN(C(=O)CSCc1ccccc1C)c1c(N)n(Cc2ccccc2)c(=O)[nH]c1=O` as the compound, how does the Potency read?
Its Potency is “inactive”.

With `Brc1ccc2ncnc(NCc3ccccc3)c2c1` as the compound, how does the Potency read?
Its Potency is inconclusive: 14.1 µM [inhibitor, partial curve].

For `O=c1cc(/N=C/c2coc3cc(Br)ccc3c2=O)[nH]c(=S)[nH]1`, which Potency is on record?
The Potency was “inactive”.

For `CCCn1c(CCC(=O)Nc2ccc(OCC)cc2)nc2cccnc21`, which Potency is on record?
The Potency was inconclusive: 8.91 µM [inhibitor, partial curve, poor fit].

For `COc1c(O)cc(O)c2c(=O)cc(-c3ccccc3)oc12`, which Potency is on record?
Its Potency is inconclusive: 12.6 µM [inhibitor, partial curve, poor fit].

For `Cc1ccccc1C(=O)N1CCC(C(=O)Nc2cccc(S(=O)(=O)N3CCCCC3)c2)CC1`, which Potency is on record?
Its Potency is inconclusive: 8.91 µM [inhibitor, partial curve, poor fit].

With `COc1ccc(Cl)cc1NC(=O)CN1CCN(C(=O)N2CCOCC2)CC1` as the compound, how does the Potency read?
Its Potency is inconclusive: 3.55 µM [inhibitor, partial curve, poor fit].

With `Cc1ccc2c(c1)c1c(n2CC(O)Cn2c(C)nc3ccccc32)/C(=N\O)CCC1` (configuration not stated) as the compound, how does the Potency read?
The Potency was inconclusive: 14.1 µM [inhibitor, single point].

With `COC(=O)c1scc(-c2ccc(C)cc2)c1S(=O)(=O)N1CCN(c2ccc(C(C)=O)cc2)CC1` as the compound, how does the Potency read?
The Potency was inconclusive: 8.91 µM [inhibitor, partial curve].

With `COc1ccccc1CNS(=O)(=O)CC12CCC(CC1=O)C2(C)C` (configuration not stated) as the compound, how does the Potency read?
Its Potency is inconclusive: 35.5 µM [inhibitor, single point].

For `Cc1cc(C)c(C(=O)N2CCCC(N3CCN(c4cccc(C(F)(F)F)c4)CC3)C2)o1` (configuration not stated), which Potency is on record?
Its Potency is inconclusive: 20 µM [inhibitor, partial curve, poor fit].

Which Potency does the source give for `CC(OC(=O)c1ccccc1NCCO)C(=O)NC1CCCCC1C` (configuration not stated) here?
Its Potency is inconclusive: 0.708 µM [inhibitor, full curve].

With `C[C@@H]1CN([C@H](C)CO)C(=O)CCCn2cc(nn2)CO[C@H]1CN(C)S(=O)(=O)c1ccccc1F` as the compound, how does the Potency read?
Its Potency is inconclusive: 6.31 µM [inhibitor, single point].

With `Cc1cccc(C2=NC(C(F)(F)F)(C(F)(F)F)c3c(n(-c4ccc(F)cc4)c(=O)[nH]c3=O)N2)c1` as the compound, how does the Potency read?
The Potency was inconclusive: 15.8 µM [inhibitor, partial curve, poor fit].

For `CCc1cccc(-n2nnc(-c3nsc(NC(=O)c4cccs4)n3)c2C)c1`, which Potency is on record?
Its Potency is inconclusive: 12.6 µM [inhibitor, partial curve, poor fit].

For `CCc1nc(N2CCN(C(=O)c3ccccc3)CC2)c2c3c(sc2n1)CCCC3`, which Potency is on record?
Its Potency is inconclusive: 3.16 µM [inhibitor, partial curve, poor fit].

With `Cc1ccc(OCc2ccc(-c3nc(C#N)c(NCc4cccnc4)o3)o2)cc1` as the compound, how does the Potency read?
The Potency was “inactive”.

For `CS(=O)(=O)c1ccc(N2CCN(c3ccccn3)CC2)c([N+](=O)[O-])c1`, which Potency is on record?
The Potency was “inactive”.

— PubChem BioAssay AID588855 (National Center for Advancing Translational Sciences (NCATS), 2011)
